Source: paper PMC4336329 (PLoS ONE, 2015)
About 14,000 (4.5%) of roughly 310,000 compounds showed an effect of 50% or more. Effects have a minus sign here. This is one part of the list.

What follows are compounds tested against human ether-à-go-go-related gene (hERG) potassium channel (human, UniProt Q12809) (assay: primary screen, population patch clamp on CHO cells stably expressing hERG).
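Note: peak tail current of the secondary pulse compared with the same well before compound.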

Sequence of human ether-à-go-go-related gene (hERG) potassium channel (Q12809 whole entry, looked up): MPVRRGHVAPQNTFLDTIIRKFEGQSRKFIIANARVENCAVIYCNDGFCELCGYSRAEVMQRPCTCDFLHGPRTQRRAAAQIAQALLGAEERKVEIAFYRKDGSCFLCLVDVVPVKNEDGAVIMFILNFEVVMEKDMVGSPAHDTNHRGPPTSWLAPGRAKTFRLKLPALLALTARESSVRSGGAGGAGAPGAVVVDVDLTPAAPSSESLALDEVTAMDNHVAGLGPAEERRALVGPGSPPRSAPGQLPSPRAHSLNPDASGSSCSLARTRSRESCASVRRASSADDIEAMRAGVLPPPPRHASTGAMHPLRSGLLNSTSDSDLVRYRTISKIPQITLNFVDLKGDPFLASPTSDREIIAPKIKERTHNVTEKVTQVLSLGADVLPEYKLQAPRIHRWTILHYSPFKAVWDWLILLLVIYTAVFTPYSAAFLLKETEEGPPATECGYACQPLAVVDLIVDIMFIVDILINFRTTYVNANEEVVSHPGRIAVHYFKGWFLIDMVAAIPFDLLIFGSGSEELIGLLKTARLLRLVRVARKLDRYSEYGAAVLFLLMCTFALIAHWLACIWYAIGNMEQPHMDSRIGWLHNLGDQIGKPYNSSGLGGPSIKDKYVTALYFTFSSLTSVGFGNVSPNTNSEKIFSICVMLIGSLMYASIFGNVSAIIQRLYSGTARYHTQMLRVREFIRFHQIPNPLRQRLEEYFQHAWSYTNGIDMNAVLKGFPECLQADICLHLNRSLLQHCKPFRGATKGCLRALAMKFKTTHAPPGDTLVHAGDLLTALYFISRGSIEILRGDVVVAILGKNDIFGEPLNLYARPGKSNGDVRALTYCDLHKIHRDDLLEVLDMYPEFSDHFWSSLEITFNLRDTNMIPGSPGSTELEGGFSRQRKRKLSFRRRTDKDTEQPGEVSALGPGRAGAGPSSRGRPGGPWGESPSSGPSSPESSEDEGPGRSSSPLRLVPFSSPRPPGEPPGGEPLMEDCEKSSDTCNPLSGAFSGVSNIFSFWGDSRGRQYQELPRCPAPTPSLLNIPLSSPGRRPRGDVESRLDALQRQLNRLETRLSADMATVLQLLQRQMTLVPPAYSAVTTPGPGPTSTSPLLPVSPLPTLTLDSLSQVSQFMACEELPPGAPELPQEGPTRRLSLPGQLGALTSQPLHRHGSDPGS

| SMILES | hERG current change (%, negative = inhibition) at 10uM [%] |
| --- | --- |
| O=C(C1CCC(=O)N1Cc1ccccc1Cl)N1CCN(c2cccc(Cl)c2)CC1 (stereo not drawn) | -21.6 |
| Cc1cc(C)n(-c2nc(-c3ccccc3)cs2)n1 | 0.969 |
| CCOC(=O)C1CCN(CC(=O)NC(=O)NC2CCCCC2)CC1 | 7.36 |
| CCCc1nc(-c2ccccc2O)n(-c2ccccc2)n1 | 9.05 |
| O=C1CN(C(=O)NCC(=O)N[C@@H](C(=O)O)c2ccccc2)c2ccccc2N1 | 11.6 |
| Cc1ccc(OCC(=O)Nc2ccc(S(=O)(=O)N3CCOCC3)cc2)c([N+](=O)[O-])n1 | 5.15 |
| CC(C)(C)n1nnnc1C(c1ccc(Cl)cc1)N(Cc1cccnc1)Cc1ccco1 (stereo not drawn) | -14.7 |
| CN(Cc1ccccc1)S(=O)(=O)c1ccc2[nH]c(=O)ccc2c1 | -1.77 |
| O=C(NC1CCCCC1)C(c1ccc(Cl)cc1)N1CCC2(CC1)OCCO2 (stereo not drawn) | -1.75 |
| CC(=O)C(Cc1ccccc1)NC(=O)CN1c2cccc3cccc(c23)S1(=O)=O (stereo not drawn) | 18 |
| CCCc1ccc(OCc2ccc(C(=O)N/N=C/c3cccnc3)o2)cc1 | 0.17 |
| CC1(C)Oc2nc3ccccc3n2/C1=C\C#N | -5.76 |
| CCC(=O)c1ccc(OCC(=O)OCC(=O)NCCC2=CCCCC2)cc1 | 11.7 |
| O=C1CCCCN1CC(=O)N1CCCC(Nc2ccc(F)cc2)C1 (stereo not drawn) | 4.75 |
| O=C(Nc1ccc(Cl)cc1Cl)NC1CCN(S(=O)(=O)c2ccc(F)cc2)CC1 | 17.8 |
| COc1cc(C(=O)NCc2ccc(S(N)(=O)=O)cc2)ccc1OCC(=O)N1CCOCC1 | 12.5 |
| COc1cc(/C=N/NC(=O)NC2CCCCC2)cc(OC)c1O | -7.87 |
| Cc1ccc(/C=N/Nc2nc(Cl)c(Cl)cc2Cl)s1 | 12.6 |
| Cc1c([N+](=O)[O-])c2ccc(O)cc2n1-c1ccccc1 | 9.18 |
| COC(=O)c1sc2nc(N3CCCCC3)c3c(c2c1N)CCCC3 | 24.6 |
| NS(=O)(=O)c1ccc(NC(=O)COC(=O)c2cc(Cl)ccc2[N+](=O)[O-])cc1 | -4.94 |
| Cc1nc2ccccc2c2c(N)c3ccccc3n12 | 8.76 |
| CC(NS(=O)(=O)c1ccc(Cl)c(Cl)c1)C(=O)OCC(=O)N1CCCCCC1 (stereo not drawn) | -32.4 |
| O=C(Nc1ccccc1)c1cc2ccc3ccccc3c2s1 | 16.8 |
